# This is one part of the list.
# B1: PhoQ; a variant is named by its letters at X, in order, P23837 (parent)
# chain: MKKLLRLFFPLSLRVRFLLATAAVVLVLSLAYGMVALIGYSVSFDKTTFRLLRGESNLFYTLAKWENNKLHVELPENIDKQSPTMTLIYDENGQLLWAQRDVPWLMKMIQPDWLKSNGFHEIEADVNDTSLLLSGDHSIQQQLQEVREDDDDAEMTHSVAVNVYPATSRMPKLTIVVVDTIPVELKSSYMVWSWFIYVLSANLLLVIPLLWVAAWWSLRPIEALAKEVRELEEHNRELLNPATTRELTSLVRNLNRLLKSERERYDKYRTTLTDLTHSLKTPLXXLQXXLRSLRSEKMSVSDAEPVMLEQISRISQQIGYYLHRASMRGGTLLSRELHPVAPLLDNLTSALNKVYQRKGVNISLDISPEISFVGEQNDFVEVMGNVLDNACKYCLEFVEISARQTDEHLYIVVEDDGPGIPLSKREVIFDRGQRVDTLRPGQGVGLAVAREITEQYEGKIVAGESMLGGARMEVIFGRQHSAPKDE
# Variants of: B1
# Experiment: enrichment ratio after two sorts for PhoP signalling (ratio (wild type AVST 3.29)); higher = more functional
# Conditions: with PhoP (E. coli)
row,Variant,enrichment ratio
1,FDHV,≤ 0.25
2,DICP,≤ 0.25
3,SQID,≤ 0.25
4,PCSA,≤ 0.25
5,KAQC,≤ 0.25
6,LFED,≤ 0.25
7,HGTI,≤ 0.25
8,WNSE,≤ 0.25
9,QASG,17.4
10,RSTA,≤ 0.25
11,LGAC,≤ 0.25
12,AQIK,≤ 0.25
13,WQMG,≤ 0.25
14,HTNT,≤ 0.25
15,GVRT,≤ 0.25
16,DKFN,≤ 0.25
17,DLDR,≤ 0.25
18,HWFI,≤ 0.25
19,VWTA,≤ 0.25
20,HICY,≤ 0.25
21,TRFY,≤ 0.25
22,SMFI,≤ 0.25
23,SCKF,≤ 0.25
24,EIAI,≤ 0.25

row,Variant,enrichment ratio
1,SRIA,0.34
2,MRLN,≤ 0.25
3,WFCG,≤ 0.25
4,MPVG,≤ 0.25
5,LHLV,≤ 0.25
6,TQFK,≤ 0.25
7,TTQL,5.72
8,FYKI,≤ 0.25
9,FHGS,≤ 0.25
10,NFSD,≤ 0.25
11,IRAF,≤ 0.25
12,SWIQ,≤ 0.25
13,ATLC,13.2
14,KNSM,≤ 0.25
15,IPVY,≤ 0.25
16,GIHG,≤ 0.25
17,VETY,0.319
18,LYAM,≤ 0.25
19,RAIE,≤ 0.25
20,FNPI,≤ 0.25
21,ALFD,≤ 0.25
22,WHFC,≤ 0.25
23,FHQN,≤ 0.25
24,VTIM,1.04

row,Variant,enrichment ratio
1,RSPR,≤ 0.25
2,IGID,≤ 0.25
3,LIMQ,≤ 0.25
4,QSTA,≤ 0.25
5,PCEF,≤ 0.25
6,FQQT,≤ 0.25
7,VSFE,≤ 0.25
8,YNRH,≤ 0.25
9,LGEW,≤ 0.25
10,KSVY,≤ 0.25
11,AGWR,≤ 0.25
12,IHGQ,≤ 0.25
13,HAFD,≤ 0.25
14,SITV,11.8
15,GCMP,≤ 0.25
16,INMH,≤ 0.25
17,YFWW,≤ 0.25
18,EFDT,≤ 0.25
19,YIPW,≤ 0.25
20,GPGD,≤ 0.25
21,KNDK,≤ 0.25
22,RPWE,≤ 0.25
23,KELT,≤ 0.25
24,DPRV,≤ 0.25

row,Variant,enrichment ratio
1,VQLV,1.23
2,KVYM,≤ 0.25
3,PDSS,≤ 0.25
4,IPYI,≤ 0.25
5,WFYV,≤ 0.25
6,ACLP,2.02
7,MGTP,≤ 0.25
8,YGLH,5.47
9,LATY,≤ 0.25
10,QIPV,≤ 0.25
11,EQCL,≤ 0.25
12,YSSY,≤ 0.25
13,RYQW,≤ 0.25
14,KGRS,≤ 0.25
15,FRWC,≤ 0.25
16,LENP,≤ 0.25
17,MPHN,≤ 0.25
18,LDEE,≤ 0.25
19,DNVS,≤ 0.25
20,AYEN,≤ 0.25
21,DHEQ,≤ 0.25
22,DDPY,≤ 0.25
23,VTHH,≤ 0.25
24,RPCA,≤ 0.25

row,Variant,enrichment ratio
1,AKHL,≤ 0.25
2,WENP,≤ 0.25
3,KNTW,≤ 0.25
4,FGNK,≤ 0.25
5,GNLY,3.04
6,HQWY,≤ 0.25
7,ACID,≤ 0.25
8,VCAM,5.59
9,WADP,≤ 0.25
10,YKLN,≤ 0.25
11,TMYQ,5.7
12,MDFP,≤ 0.25
13,VTTE,≤ 0.25
14,SSWF,≤ 0.25
15,QGSV,5.34
16,TQQK,≤ 0.25
17,LHLQ,≤ 0.25
18,VISV,≤ 0.25
19,VCCL,2.8
20,VGRV,≤ 0.25
21,FTQV,≤ 0.25
22,QLIF,≤ 0.25
23,YNMK,≤ 0.25
24,IGVD,≤ 0.25

row,Variant,enrichment ratio
1,WMII,≤ 0.25
2,GKIP,≤ 0.25
3,SMNH,2.63
4,PWQR,≤ 0.25
5,TEKH,≤ 0.25
6,QCVK,≤ 0.25
7,WEFT,≤ 0.25
8,ENML,≤ 0.25
9,QIFI,≤ 0.25
10,ITWW,≤ 0.25
11,DKPT,≤ 0.25
12,FNVV,≤ 0.25
13,LYLL,≤ 0.25
14,TGVS,4.39
15,HKGL,≤ 0.25
16,MQIH,≤ 0.25
17,TTSR,≤ 0.25
18,MACY,≤ 0.25
19,NAGQ,≤ 0.25
20,QLMI,≤ 0.25
21,ENVT,≤ 0.25
22,NCKR,≤ 0.25
23,VMWF,≤ 0.25
24,IVHC,≤ 0.25

row,Variant,enrichment ratio
1,QAPS,≤ 0.25
2,LFLK,≤ 0.25
3,MKGT,≤ 0.25
4,LPGC,≤ 0.25
5,PLAQ,≤ 0.25
6,AYPI,≤ 0.25
7,FLVD,≤ 0.25
8,KNWW,≤ 0.25
9,HDIL,0.461
10,DQQC,≤ 0.25
11,KVGN,≤ 0.25
12,LYNN,≤ 0.25
13,SRRH,≤ 0.25
14,TKVT,11.1
15,DRGS,≤ 0.25
16,FLNK,≤ 0.25
17,EHLC,≤ 0.25
18,MHSY,≤ 0.25
19,FPNG,≤ 0.25
20,WKHR,≤ 0.25
21,WTSL,≤ 0.25
22,PTLK,≤ 0.25
23,MGQD,≤ 0.25
24,GCPT,≤ 0.25

row,Variant,enrichment ratio
1,KPAG,≤ 0.25
2,WYSM,≤ 0.25
3,WPRL,≤ 0.25
4,TRYV,≤ 0.25
5,PPTE,≤ 0.25
6,NVLD,≤ 0.25
7,WDYG,≤ 0.25
8,SKID,≤ 0.25
9,DRNY,≤ 0.25
10,FEQE,≤ 0.25
11,DYMG,≤ 0.25
12,SACD,≤ 0.25
13,TRHD,≤ 0.25
14,YENC,≤ 0.25
15,IPHT,≤ 0.25
16,EMFP,≤ 0.25
17,SEEI,≤ 0.25
18,SRQR,≤ 0.25
19,HARG,≤ 0.25
20,LSKF,≤ 0.25
21,FNSN,≤ 0.25
22,MENE,≤ 0.25
23,AETE,8.78
24,PEQP,≤ 0.25

row,Variant,enrichment ratio
1,VNWL,≤ 0.25
2,FNVI,≤ 0.25
3,SDIQ,6.24
4,LSCK,≤ 0.25
5,LHLL,≤ 0.25
6,ASGM,22.7
7,GDLQ,≤ 0.25
8,MQAL,0.591
9,LCFR,≤ 0.25
10,EDSF,≤ 0.25
11,NGPM,≤ 0.25
12,QIGI,≤ 0.25
13,NMRC,≤ 0.25
14,EGMC,≤ 0.25
15,NYAH,≤ 0.25
16,YYAW,≤ 0.25
17,HMTK,≤ 0.25
18,SQFR,≤ 0.25
19,SKRD,≤ 0.25
20,FHIA,≤ 0.25
21,NHLD,≤ 0.25
22,YNVH,≤ 0.25
23,LPYD,≤ 0.25
24,TETS,13.7

row,Variant,enrichment ratio
1,IYRI,≤ 0.25
2,QFII,≤ 0.25
3,PCMK,≤ 0.25
4,QRGK,≤ 0.25
5,ETTA,≤ 0.25
6,KLNA,≤ 0.25
7,FMEL,≤ 0.25
8,PTTH,1.43
9,NMHL,≤ 0.25
10,PNHE,≤ 0.25
11,RTSH,≤ 0.25
12,DDSY,≤ 0.25
13,SDHL,≤ 0.25
14,NLTP,≤ 0.25
15,MGHT,≤ 0.25
16,NFPQ,≤ 0.25
17,TPHS,≤ 0.25
18,MAER,≤ 0.25
19,VMPY,≤ 0.25
20,IPVQ,≤ 0.25
21,DRLL,≤ 0.25
22,GRKG,≤ 0.25
23,TMCV,13.2
24,RKQY,≤ 0.25

row,Variant,enrichment ratio
1,QGNW,≤ 0.25
2,YAWY,≤ 0.25
3,RNHP,≤ 0.25
4,FLRP,≤ 0.25
5,AFHC,≤ 0.25
6,FYYD,≤ 0.25
7,DESL,≤ 0.25
8,QHWV,≤ 0.25
9,KTMG,≤ 0.25
10,HAGH,≤ 0.25
11,YCIK,≤ 0.25
12,SVVE,≤ 0.25
13,NYKQ,≤ 0.25
14,QNMG,≤ 0.25
15,RKGF,≤ 0.25
16,IMDP,≤ 0.25
17,VQHH,≤ 0.25
18,ISMF,≤ 0.25
19,YISA,0.687
20,EGCD,≤ 0.25
21,TGYI,8.06
22,NMNN,≤ 0.25
23,SRHG,≤ 0.25
24,MLFC,≤ 0.25

row,Variant,enrichment ratio
1,PQNG,≤ 0.25
2,YTPR,≤ 0.25
3,MDHH,≤ 0.25
4,WCYL,≤ 0.25
5,YCCY,≤ 0.25
6,YCIS,0.352
7,DSSG,≤ 0.25
8,RLWG,≤ 0.25
9,WQAH,≤ 0.25
10,WYDG,≤ 0.25
11,EHLY,≤ 0.25
12,PSVY,≤ 0.25
13,GSLY,7.32
14,HICE,≤ 0.25
15,FDSF,≤ 0.25
16,EGGF,≤ 0.25
17,QGQM,≤ 0.25
18,GKMP,≤ 0.25
19,FKRA,≤ 0.25
20,RFNV,≤ 0.25
21,ETMS,≤ 0.25
22,YFIV,≤ 0.25
23,LNHL,≤ 0.25
24,FGNH,≤ 0.25

row,Variant,enrichment ratio
1,TKEP,≤ 0.25
2,VPDT,≤ 0.25
3,APMD,≤ 0.25
4,DLGP,≤ 0.25
5,SLMA,0.45
6,GGVK,≤ 0.25
7,YGVE,≤ 0.25
8,HAWH,≤ 0.25
9,RFNY,≤ 0.25
10,ALEF,≤ 0.25
11,HEKF,≤ 0.25
12,MHRI,≤ 0.25
13,QVSY,≤ 0.25
14,TKDM,≤ 0.25
15,FYSG,≤ 0.25
16,NPAH,≤ 0.25
17,SEYE,≤ 0.25
18,HTPH,≤ 0.25

# Reference: a collection of fitness landscapes (doi:10.1126/science.1257360)
